About 2,200 (0.71%) of roughly 310,000 compounds showed an effect of 50% or more. Effects have a minus sign here. Some of the results follow.
The compounds below were run against human ether-à-go-go-related gene (hERG) potassium channel (human, UniProt Q12809) (assay: primary screen, population patch clamp on CHO cells stably expressing hERG).
Chain of human ether-à-go-go-related gene (hERG) potassium channel (Q12809 whole entry, looked up): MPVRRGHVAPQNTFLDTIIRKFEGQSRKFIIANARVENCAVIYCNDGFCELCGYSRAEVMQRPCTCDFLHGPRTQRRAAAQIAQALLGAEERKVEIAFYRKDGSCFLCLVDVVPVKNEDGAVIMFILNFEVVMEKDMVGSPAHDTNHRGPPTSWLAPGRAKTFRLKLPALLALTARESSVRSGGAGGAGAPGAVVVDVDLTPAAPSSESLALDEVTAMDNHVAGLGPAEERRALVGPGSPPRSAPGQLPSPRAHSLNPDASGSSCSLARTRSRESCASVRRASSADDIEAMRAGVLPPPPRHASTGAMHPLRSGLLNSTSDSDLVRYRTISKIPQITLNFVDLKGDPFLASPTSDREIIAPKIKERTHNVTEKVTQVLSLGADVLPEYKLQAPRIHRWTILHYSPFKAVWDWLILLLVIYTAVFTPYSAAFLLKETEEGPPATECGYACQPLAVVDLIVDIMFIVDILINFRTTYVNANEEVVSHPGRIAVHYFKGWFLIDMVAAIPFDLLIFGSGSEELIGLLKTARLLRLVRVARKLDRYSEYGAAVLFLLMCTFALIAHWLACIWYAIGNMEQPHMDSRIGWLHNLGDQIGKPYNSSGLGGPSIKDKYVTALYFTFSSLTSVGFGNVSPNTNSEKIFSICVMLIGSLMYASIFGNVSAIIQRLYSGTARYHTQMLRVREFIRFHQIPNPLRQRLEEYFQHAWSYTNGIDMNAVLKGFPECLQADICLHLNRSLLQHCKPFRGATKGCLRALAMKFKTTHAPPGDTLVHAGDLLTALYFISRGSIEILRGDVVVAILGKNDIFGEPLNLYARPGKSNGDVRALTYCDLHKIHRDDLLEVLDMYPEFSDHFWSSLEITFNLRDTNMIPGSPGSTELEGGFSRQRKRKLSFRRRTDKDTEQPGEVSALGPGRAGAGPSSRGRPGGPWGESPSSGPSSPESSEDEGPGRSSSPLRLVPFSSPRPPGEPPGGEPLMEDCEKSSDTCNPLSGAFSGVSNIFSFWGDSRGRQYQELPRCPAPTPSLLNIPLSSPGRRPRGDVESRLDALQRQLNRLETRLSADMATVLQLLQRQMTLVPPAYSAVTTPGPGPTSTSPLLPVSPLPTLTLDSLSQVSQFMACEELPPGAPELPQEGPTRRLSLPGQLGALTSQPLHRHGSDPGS

Structure (SMILES) | hERG current change (%, negative = inhibition) at 1uM [%]
C[C@H](NC(=O)Nc1ccc2c(c1)OCCO2)C(=O)O | 20.4
COCCCNC(=S)N(CCO)Cc1cc2cc3c(cc2[nH]c1=O)OCCO3 | 14.1
COc1cc(C2NC(=O)NC(c3ccccc3)=C2C(C)=O)ccc1OCC(=O)O (centres unmarked) | 8.84
CCOC(=O)/C(N=Nc1cc(C(=O)O)cc(C(=O)O)c1)=C(\O)CCl | 3.38
NS(=O)(=O)c1ccc(CCNC(=S)NC2CCCC2)cc1 | 6.65
COc1cccc(/C=N/NC(=O)c2cccc3ccccc23)c1OC | 14.3
COc1cc(Cn2c(-c3nonc3N)nc3ccccc32)ccc1C | 1.87
O=C(NCc1nc(-c2ccc(C(F)(F)F)cc2)no1)Nc1cc(Cl)cc(Cl)c1 | 11.7
CCOC(=O)c1c(C)c(-c2ccccc2)n(CC(=O)NCCC(C)C)c1C | 10.5
Nn1c(SCC(=O)Nc2ccc(OC(F)F)cc2)nnc(Cc2ccccc2)c1=O | -15.8
COc1ccc(C(=O)N2CCN(C3CCCCC3)CC2)cc1OC.O=C(O)C(=O)O | -74.2
Cc1ccc(C(=O)NC(C(=O)NC2CCCC2)c2ccccc2)cc1 (centres unmarked) | 14.7
Cc1cc(C)c(NC(=O)C2CCCCN2C)c(C)c1.Cl (centres unmarked) | 5.4
O=C(NN1C(=O)c2ccccc2NC1c1cccnc1)c1ccc([N+](=O)[O-])cc1 (centres unmarked) | -4.83
CCC(C)c1ccc(NC(=S)N2CCN(C(=O)C3CCCO3)CC2)cc1 (centres unmarked) | -12.1
CCCC(c1nnnn1C(C)(C)C)N1CCN(Cc2ccccc2OC)CC1.Cl (centres unmarked) | 5.97
COc1ccc(CCNC(=O)C(C)OC(=O)c2cccs2)cc1OC (centres unmarked) | -3.5
O=C(Cc1c(Cl)cccc1Cl)OCC(=O)N1CCN(C(=O)c2ccco2)CC1 | 4.74
Cc1cc(C(=O)NCc2ccccc2)no1 | 10.3
O=C(CCCC(=O)N1CCCc2ccccc21)N1CCCc2ccccc21 | -4.61
Cc1sc(NC(=O)C2CSC3(C)CCC(=O)N23)nc1-c1ccc(F)cc1 (centres unmarked) | 0.383
Cc1nc(SCC(=O)N2CCCCC2)c2c(C)c(C)sc2n1 | 7
CC(=O)c1cccc(NC(=O)C2CCN(S(=O)(=O)c3cccs3)CC2)c1 | 13.2

Structure (SMILES) | hERG current change (%, negative = inhibition) at 1uM [%]
COc1ccccc1C(=O)NC(CCSC)C(=O)NCc1ccncc1 (centres unmarked) | 9.86
COc1ccc(CN2CCN(C(=O)CCC(=O)Nc3nnc(C(F)(F)F)s3)CC2)cc1F | 23.8
CN(CC(=O)Nc1ccc(F)cc1)C(=O)CSc1nncs1 | 15.7
CCCCN(CC)C(=O)CSc1nc2n[nH]c(C)c2c(=N)n1-c1cccc(C)c1 | 14.5
CCCN1/C(=C2/SC(=S)N(CC)C2=O)C=Cc2ccccc21 | 8.01
CN1CCN(C(=O)CCCOc2cc(=O)n(C)c3ccccc23)CC1 | -0.0929
Cc1ccc(C23OC(=O)C(C)(C)C2OC(=O)C3(C)C)cc1 (centres unmarked) | 4.77
Cc1ccc(N(CC(=O)NCC2CCCO2)S(=O)(=O)c2ccccc2)c(C)c1 (centres unmarked) | 3.21
Cc1cc(C)n(CC(O)Cn2ccc3ccccc32)n1 (centres unmarked) | -3.79
C[C@@H](NC(=O)[C@@H]1Cc2ccccc2CN1)C(=O)NCc1ccco1 | 13.3
CC(C)CC(=O)Nc1cccc(-c2csc(-c3ccccc3)n2)c1 | 11.9
COc1ccc(NC(=O)CSc2n[nH]c(-c3ccncc3)n2)c([N+](=O)[O-])c1 | 15.6
COc1cc(C)c(CNC2CCCCC2)cc1C | 2.45
CCSc1nc(CC)c2c(c1C#N)CCCC2 | 5.08
Cc1cccn2c(=O)c3cc(C(=O)N4CCCC(C)C4)sc3nc12 (centres unmarked) | 11.6
NS(=O)(=O)c1ccc(NC(=O)COC(=O)CCc2nc3ccccc3c(=O)[nH]2)cc1 | 19.1
Cc1ccc(N2CC(C(=O)Nc3nnc(SCC(N)=O)s3)CC2=O)cc1C (centres unmarked) | 14
O=C(/C=C/c1ccco1)NC(=S)Nc1ccc(Cl)cn1 | 8.56
CCOC(=O)C1CCCN(C2=C(NS(=O)(=O)c3ccc(Br)cc3)C(=O)c3ccccc3C2=O)C1 (centres unmarked) | 7.43
CN(C(=O)CCN1C(=O)S/C(=C\c2ccccc2)C1=O)C1CCS(=O)(=O)C1 (centres unmarked) | 4.62
CCC/C(=N\NC(=O)C1CC1)c1ccc(Br)cc1 | 10.7
C1CCC(C23CC4CC(CC(C4)C2)C3)NC1 (centres unmarked) | 13.6
CCN(CC)C(CNC(=O)CSc1nnnn1-c1ccc(C)c(C)c1)c1ccco1 (centres unmarked) | -0.627

Structure (SMILES) | hERG current change (%, negative = inhibition) at 1uM [%]
CCOC(=O)CC1C(=O)NCCN1C(=O)c1c(Cl)cccc1Cl (centres unmarked) | 14.3
CC(=O)NCc1ccc(S(=O)(=O)NC(C)CCc2ccccc2)cc1 (centres unmarked) | 12.1
CC(C)(C)C1=NN(C(=O)c2ccccc2)C(O)(C(C)(C)C)C1 (centres unmarked) | -11.8
O=C(CCCC(=O)N(CC(=O)NC1CCCCC1)c1ccc(F)cc1)Nc1ccccn1 | 12.3
O=C1[C@H]2[C@@H](c3ccc(F)cc3)N3C(=O)N(c4ccccc4)C(=O)[C@@]3(Cc3ccc(Cl)cc3)[C@H]2C(=O)N1C1CCCCC1 | 8.73
COc1ccc(NCc2nnc(SCc3ccc(Cl)cc3)n2-c2ccccc2)cc1 | 13.9
CC(Oc1ccccc1Cl)C(=O)N(Cc1ccco1)C1CCS(=O)(=O)C1 (centres unmarked) | 11.1
C=C(C)C(=O)Nc1cccc(C2=NOC3(C2)C[C@@H](C(N)=O)N(C(=O)/C=C/CC)C3)c1 (some centres unmarked) | 5.17
CC(=O)NC1C(=O)N=C(SCC(=O)Nc2sc3c(c2C#N)CCCCCC3)NC1=O (centres unmarked) | 10.7
Cc1cc(C(=O)Nc2c(C)nn(Cc3ccccc3Cl)c2C)no1 | -1.9
O=C(CNC1CCCCC1)N1CCc2ccccc2C1 | -0.403
COc1ccc2c(c1)C(=O)CCC2c1ccccc1 (centres unmarked) | -0.189
COc1ccc(NC(=S)NNC(=S)Nc2cccc(C(F)(F)F)c2)cc1 | 7.6
Cc1sc2nc(-c3ccncc3)[nH]c(=O)c2c1-c1ccccc1 | 4.38
Cc1ccc(NC(=O)C2CCCNC2=O)nc1 (centres unmarked) | 5.14
Cc1c(NC(=O)C23CC4CC(CC(C4)C2)C3)c(=O)n(-c2ccccc2)n1C | 19.2
CCCCC(=O)Nc1ccc(C(=O)N(CC)c2ccccc2C)cc1 | 14.6
CCOc1ccc(CCNC(=O)CN2C(=O)NC3(CCCCC3C)C2=O)cc1OCC (centres unmarked) | 14.6
Cc1nnc(-c2cnn(C)c2N)n1CCCN1CCOCC1 | 5.12
COc1cccc(C(c2c(C)[nH]n(-c3ccccc3)c2=O)c2c(C)[nH]n(-c3ccccc3)c2=O)c1OC | 7.35
COc1ccccc1C(=O)NCc1ccncc1 | 11.7
CCCc1cc(=O)oc2c3c(c(Cl)cc12)OCN(CCCO)C3 | 16.3
COc1ccc(NC(=O)Cn2nnc(C(=O)NCc3ccccc3)c2N)cc1Cl | 0.794

Structure (SMILES) | hERG current change (%, negative = inhibition) at 1uM [%]
CCN(CC)S(=O)(=O)c1ccc(NC(=O)C(C)N(c2ccccc2)S(C)(=O)=O)cc1 (centres unmarked) | 10.2
CCCC(=O)NC(=S)Nc1ccc(NC(=O)C(C)C)c(OC)c1 | -8.37
COc1ccc(C(C)(C)C)cc1NC(=O)C1CC=CCC1C(=O)O (centres unmarked) | 11.5
CCOC(=O)CN1C(=O)N[C@@H](c2ccc(Br)cc2)C(C(=O)OC)=C1C | 4.15
CCS(=O)(=O)N1CCC(N2CCC(C)CC2)CC1.O=C(O)C(=O)O | 4.36
COC(=O)Nc1[nH]ncc1[N+](=O)[O-] | 15.7
CCCCNc1c2c3c(cccc3n(C)c1=O)C(=O)c1ccccc1-2 | -3.58
CCOc1ccc(CN2CCC(n3nccc3NC(=O)c3ccccc3OC)CC2)cc1 | -89.4
COc1ccccc1C(=O)Nc1c[nH]c(=O)[nH]c1=O | 12.1
Cc1nc(-c2ccc(S(=O)(=O)Nc3ccc(Br)cc3Cl)s2)cs1 | 10.4
CN1CCC(N(C)C(=O)c2sc3cc(F)ccc3c2Cl)CC1 | -13.8
Cc1c(C=O)c2ccccc2n1CC(=O)NCc1ccc2c(c1)OCO2 | 20.1
CCN(C(=O)CSc1cc(C)c2ccccc2n1)C1CCS(=O)(=O)C1 (centres unmarked) | 3.62
c1coc(-c2ccnc3nc(-n4cccc4)nn23)c1 | -3.11
CCOC(=O)c1c(NC(=O)CSc2nc3nc(C)cc(C)n3n2)sc(CC)c1C | 14.4
S=C(NCCc1ccc(Cl)cc1)NC1CCCC1 | 16.1
Cc1ccc(C(=O)Cn2nnc3ccccc32)cc1 | 14
O=C1C(Cl)=C(NCC2CCCO2)C(=O)N1c1cccc(Cl)c1Cl (centres unmarked) | 6.78
O=S(=O)(NN=C1CCCCCC1)c1ccc(Cl)cc1 | 6.87
CCOC(=O)CN(C(=O)CSc1nnc(COc2ccc(OC)cc2)n1CC)c1ccccc1 | -7.97

— publication PMC4336329 (PLoS ONE, 2015)
